The values that follow come from article PMC10731500, “NMR‐identification of the interaction between BRCA1 and the intrinsically disordered monomer of the Myc‐associated factor X” (Protein Science : A Publication of the Protein Society, 2024).

The target of this test is BRCA1 (breast cancer susceptibility protein 1) fragment housing amino acids 219-504 (UniProt P38398 219-504). The experiment in a line: ITC; MAX titrated into a BRCA1 219-504 solution; one-site model. As to conditions: both partners purified.

A word on the Kd: it is the equilibrium constant for the complex coming apart. For orientation: stoichiometry N means the number of molecules, sites or subunits per partner or assembly.

Sequence of UniProt P38398 (P38398 219-504): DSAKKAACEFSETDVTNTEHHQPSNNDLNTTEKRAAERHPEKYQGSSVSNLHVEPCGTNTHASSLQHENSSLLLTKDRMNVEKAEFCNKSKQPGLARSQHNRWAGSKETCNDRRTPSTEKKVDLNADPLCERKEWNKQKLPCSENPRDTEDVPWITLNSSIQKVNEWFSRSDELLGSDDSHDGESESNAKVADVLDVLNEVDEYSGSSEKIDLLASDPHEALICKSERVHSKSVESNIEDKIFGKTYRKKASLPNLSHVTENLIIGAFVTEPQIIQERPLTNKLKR

B1: MAX (MYC-associated factor X) (natural protein)
chain: not shown
notes: MAX, MYC-associated factor X, bHLH-LZ transcription factor; see the SI (Data S1) and Kizilsavas et al., 2017; The same protein is the MAX:MAX homodimer at lower temperature and mostly a disordered monomer at 35°C, pH 5.5; also called MAX monomer; MAX:MAX homodimer
For B1, the equilibrium dissociation constant (Kd) was 2500 ± 600 nM and the “stoichiometry N” value was ~1.3.
